Reference: patent publication US20250145722A1 (TRUEBINDING, published 2025)

B1: human Galectin-3 (Gal3), full-length recombinant (ligand)
chain: not shown
notes: treated here as one molecule; also called hGAL3; hGal3
B2: recombinant human PDL1 (R&D Systems 156-B7) (ligand)
chain: not shown
notes: Detected with anti-human IgG; also called hPDL1
B3: recombinant human CTLA4 (R&D Systems, 7268-CT) (receptor)
chain: not shown
notes: Detected with anti-human IgG; also called hCTLA4

How the values were obtained:
[1] = target: T1, recombinant human HGFR (cMet) (R&D Systems, 8614-MT) (human, UniProt P08581 25-932); test: ELISA: Gal3 coated at 2 or 3 µg/ml, protein at 2 or 3 µg/ml, anti-human IgG-HRP, A450
T1 construct: Detected with anti-human IgG

[2] = target: T2, human Toll-like Receptor 4 (PeproTech, 160-06) (human, UniProt O00206 fragment); test: ELISA: Gal3 coated, biotinylated TLR4 detected with avidin-HRP; concentrations of the bars not printed on the sheet
T2 construct: Biotinylated; also called TLR4

[3] = target: T3, recombinant human PDGFRb (R&D Systems, 385-PR/CF) (human, UniProt P09619 33-530); test: Gator biosensor kinetics (text: SPR), rhPDGFRβ/hFc captured on hFc probes, rhGal3-His as analyte, 1:1 fit
T3 construct: also called PDGF R beta; PDGFR beta
T3 sequence (P09619 33-530 limits assumed): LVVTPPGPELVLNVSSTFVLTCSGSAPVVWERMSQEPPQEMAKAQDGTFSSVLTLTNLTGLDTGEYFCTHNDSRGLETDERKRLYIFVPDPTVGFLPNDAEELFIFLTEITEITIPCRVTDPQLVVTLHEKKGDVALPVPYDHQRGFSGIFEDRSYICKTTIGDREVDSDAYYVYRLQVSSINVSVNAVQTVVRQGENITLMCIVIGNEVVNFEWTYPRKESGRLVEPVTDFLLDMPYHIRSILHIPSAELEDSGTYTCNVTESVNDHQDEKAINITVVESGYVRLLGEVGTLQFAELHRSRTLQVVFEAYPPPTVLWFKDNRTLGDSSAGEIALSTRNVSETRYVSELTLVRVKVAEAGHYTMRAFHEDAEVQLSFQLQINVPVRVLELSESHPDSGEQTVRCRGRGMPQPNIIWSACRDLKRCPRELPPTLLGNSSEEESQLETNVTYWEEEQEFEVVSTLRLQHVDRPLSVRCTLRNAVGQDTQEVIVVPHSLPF

[4] = target: recombinant human EGFR (R&D Systems, 344-ER) (human, UniProt P00533 fragment); test: Gator biosensor kinetics (text: SPR), rhEGFR/hFc captured on hFc probes, rhGal3-His as analyte, 1:1 fit
[5] = target: T4, recombinant human FGFR4 (R&D Systems, 685-FR) (human, UniProt P22455 22-369); test: ELISA: Gal3 coated at 2 or 3 µg/ml, receptor at 2 or 3 µg/ml, anti-human IgG-HRP, A450
T4 construct: Detected with anti-human IgG; also called hFGFR4

[6] = target: T5, Abeta (1-42) peptide (human); test: ELISA: Gal3 coated, biotinylated Abeta (1-42) peptide detected with avidin-HRP; concentrations of the bars not printed on the sheet
T5 construct: also called Aβ42 peptide; Aβ-42 peptide

[7] = target: T6, Abeta (1-42) oligomer (human); test: ELISA: Gal3 coated, biotinylated Abeta (1-42) oligomer detected with avidin-HRP; concentrations of the bars not printed on the sheet
T6 construct: also called Aβ42 oligomer; Abeta oligomer

[8] = target: T7, recombinant human Her2 (R&D Systems, 1129-ER) (human, UniProt P04626 fragment); test: Gator biosensor kinetics (text: SPR), rhErbB2/hFc captured on hFc probes, rhGal3-His as analyte, 1:1 fit
T7 construct: also called ErbB2

[9] = target: T8, recombinant human PDGFRa (R&D Systems, 6765-PR) (human, UniProt P16234 24-524); test: Gator biosensor kinetics (text: SPR), rhPDGFRα/hFc captured on hFc probes, rhGal3-His as analyte, 1:1 fit
T8 construct: also called PDGF R alpha; PDGFR alpha
T8 sequence (P16234 24-524 limits assumed): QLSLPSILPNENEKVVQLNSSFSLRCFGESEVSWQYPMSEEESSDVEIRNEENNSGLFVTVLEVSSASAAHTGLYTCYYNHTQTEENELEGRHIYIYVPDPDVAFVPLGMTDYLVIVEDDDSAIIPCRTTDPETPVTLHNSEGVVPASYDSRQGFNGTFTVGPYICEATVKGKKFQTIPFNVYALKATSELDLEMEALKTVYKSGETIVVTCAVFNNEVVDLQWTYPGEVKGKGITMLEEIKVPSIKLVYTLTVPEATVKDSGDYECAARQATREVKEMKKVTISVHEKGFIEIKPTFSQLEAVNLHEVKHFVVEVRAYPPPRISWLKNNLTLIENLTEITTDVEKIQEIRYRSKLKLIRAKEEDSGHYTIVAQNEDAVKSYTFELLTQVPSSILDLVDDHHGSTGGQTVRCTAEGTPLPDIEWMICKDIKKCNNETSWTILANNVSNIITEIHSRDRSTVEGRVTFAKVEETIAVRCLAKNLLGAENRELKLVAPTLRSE

[10] = target: recombinant human VEGFR2 (R&D Systems, 357-KD/CF) (human, UniProt P35968 20-764); test: Gator biosensor kinetics (text: SPR), rhVEGFR2/hFc captured on hFc probes, rhGal3-His as analyte, 1:1 fit
Sequence of UniProt P35968 (P35968 20-764 limits assumed): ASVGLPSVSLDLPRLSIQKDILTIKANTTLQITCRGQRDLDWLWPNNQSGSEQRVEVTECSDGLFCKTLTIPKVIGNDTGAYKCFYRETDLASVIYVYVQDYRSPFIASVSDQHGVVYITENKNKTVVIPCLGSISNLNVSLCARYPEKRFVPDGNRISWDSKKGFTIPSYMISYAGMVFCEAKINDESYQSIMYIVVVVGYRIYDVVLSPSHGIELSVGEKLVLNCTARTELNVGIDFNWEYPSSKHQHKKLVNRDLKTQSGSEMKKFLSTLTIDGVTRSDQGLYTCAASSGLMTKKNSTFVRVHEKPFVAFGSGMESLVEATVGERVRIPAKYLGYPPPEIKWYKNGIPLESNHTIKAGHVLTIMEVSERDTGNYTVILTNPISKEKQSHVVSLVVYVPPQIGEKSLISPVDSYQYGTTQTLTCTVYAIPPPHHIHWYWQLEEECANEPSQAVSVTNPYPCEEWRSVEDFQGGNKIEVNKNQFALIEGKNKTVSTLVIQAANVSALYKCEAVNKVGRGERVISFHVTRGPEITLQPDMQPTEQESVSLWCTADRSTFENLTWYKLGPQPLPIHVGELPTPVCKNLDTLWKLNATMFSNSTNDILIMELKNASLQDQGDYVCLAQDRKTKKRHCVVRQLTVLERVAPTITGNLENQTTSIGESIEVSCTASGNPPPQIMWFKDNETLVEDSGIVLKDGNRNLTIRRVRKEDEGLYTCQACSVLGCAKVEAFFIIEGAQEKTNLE

[11] = target: T9, recombinant human VEGFR1 (R&D Systems, 321-FL/CF) (human, UniProt P17948-2 27-687, limits assumed); test: ELISA: Gal3 coated at 2 or 3 µg/ml, receptor at 2 or 3 µg/ml, anti-human IgG-HRP, A450
T9 construct: Detected with anti-human IgG

[12] = target: T10, recombinant human TGF-beta RIII (R&D Systems, 242-R3-100) (human, UniProt Q03167 21-781); test: ELISA: Gal3 coated at 3 µg/ml, receptor at 3 µg/ml, anti-human IgG-HRP, A450
T10 construct: also called TGFβ R3; TGFBR3
T10 sequence (looked up): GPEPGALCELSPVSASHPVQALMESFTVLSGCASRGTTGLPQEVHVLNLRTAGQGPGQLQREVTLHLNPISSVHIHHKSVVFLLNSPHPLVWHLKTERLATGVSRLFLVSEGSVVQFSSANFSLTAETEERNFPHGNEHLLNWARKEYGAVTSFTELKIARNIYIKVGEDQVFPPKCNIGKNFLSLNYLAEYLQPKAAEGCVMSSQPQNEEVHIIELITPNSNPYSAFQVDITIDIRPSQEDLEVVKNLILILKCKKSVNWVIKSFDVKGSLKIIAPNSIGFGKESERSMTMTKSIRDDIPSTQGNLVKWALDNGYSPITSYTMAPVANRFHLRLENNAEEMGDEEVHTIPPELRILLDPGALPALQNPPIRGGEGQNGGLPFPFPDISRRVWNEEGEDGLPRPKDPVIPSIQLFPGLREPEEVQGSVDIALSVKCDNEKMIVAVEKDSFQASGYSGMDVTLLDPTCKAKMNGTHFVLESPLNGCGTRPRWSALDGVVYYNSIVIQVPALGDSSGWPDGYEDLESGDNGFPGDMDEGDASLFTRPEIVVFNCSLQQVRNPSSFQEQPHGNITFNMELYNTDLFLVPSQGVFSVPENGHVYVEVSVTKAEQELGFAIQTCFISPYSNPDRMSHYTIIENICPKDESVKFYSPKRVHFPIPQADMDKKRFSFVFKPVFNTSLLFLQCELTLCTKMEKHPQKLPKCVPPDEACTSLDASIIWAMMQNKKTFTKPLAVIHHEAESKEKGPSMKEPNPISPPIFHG

[13] = target: T11, recombinant human VEGFR3 (R&D Systems, 349-F4) (human, UniProt P35916 25-776); test: Gator biosensor kinetics (text: SPR), rhVEGFR3/hFc captured on hFc probes, rhGal3-His as analyte, 1:1 fit
T11 sequence (looked up): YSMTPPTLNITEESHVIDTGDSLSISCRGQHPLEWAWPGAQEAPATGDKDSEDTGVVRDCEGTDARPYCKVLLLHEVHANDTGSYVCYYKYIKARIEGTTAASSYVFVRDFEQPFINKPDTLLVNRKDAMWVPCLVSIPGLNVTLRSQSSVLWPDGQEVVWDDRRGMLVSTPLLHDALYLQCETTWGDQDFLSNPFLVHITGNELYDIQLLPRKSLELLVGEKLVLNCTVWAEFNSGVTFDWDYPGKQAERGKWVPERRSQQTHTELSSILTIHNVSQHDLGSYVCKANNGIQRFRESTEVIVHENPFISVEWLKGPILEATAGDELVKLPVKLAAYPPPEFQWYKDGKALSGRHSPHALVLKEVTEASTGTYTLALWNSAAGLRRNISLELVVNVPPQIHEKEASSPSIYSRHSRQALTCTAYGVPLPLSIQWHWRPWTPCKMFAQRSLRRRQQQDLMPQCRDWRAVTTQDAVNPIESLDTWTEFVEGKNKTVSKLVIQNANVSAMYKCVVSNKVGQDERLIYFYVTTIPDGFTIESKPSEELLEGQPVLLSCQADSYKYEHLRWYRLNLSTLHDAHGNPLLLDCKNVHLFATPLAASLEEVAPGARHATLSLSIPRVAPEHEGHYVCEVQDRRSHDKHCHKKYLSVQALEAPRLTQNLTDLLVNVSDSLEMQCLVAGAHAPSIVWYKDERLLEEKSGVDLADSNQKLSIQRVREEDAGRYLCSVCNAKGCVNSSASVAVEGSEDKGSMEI

[14] = target: B1; test: ELISA: Gal3 coated at 2 or 3 µg/ml, protein at 2 or 3 µg/ml, anti-human IgG-HRP, A450

In the case of B1, the binding result [1] is reported as “binds”, the binding result [2] is reported as “binds” and the Kd [3] is reported as 832 µM. For the same binder, the koff [3] was 0.0794 s⁻¹, the Kd [4] was 958 µM and the koff [4] was 0.0886 s⁻¹. B1: binds [5]; binds [6]; binds [7]. The Kd [8] was 3030 µM, the koff [8] was 0.125 s⁻¹ and the Kd [9] was 936 µM. It also gave a koff [9] of 0.111 s⁻¹, a kon [9] of 119 M⁻¹ s⁻¹ and a Kd [10] of 287 µM. For the same binder, the koff [10] was 0.0508 s⁻¹, the kon [10] was 177 M⁻¹ s⁻¹ and the binding result [11] was “no binding”. The binding result [12] was “no binding”, the Kd [13] was 3.37 µM and the koff [13] was 0.0452 s⁻¹. For the same binder, the kon [13] was 13400 M⁻¹ s⁻¹.

B2: binds [14].

B3: binds [14].
